Results on one molecule are retold here after PMC6208770.

Amino acid sequences for entries named in this document (tags omitted).
UniProt P33993: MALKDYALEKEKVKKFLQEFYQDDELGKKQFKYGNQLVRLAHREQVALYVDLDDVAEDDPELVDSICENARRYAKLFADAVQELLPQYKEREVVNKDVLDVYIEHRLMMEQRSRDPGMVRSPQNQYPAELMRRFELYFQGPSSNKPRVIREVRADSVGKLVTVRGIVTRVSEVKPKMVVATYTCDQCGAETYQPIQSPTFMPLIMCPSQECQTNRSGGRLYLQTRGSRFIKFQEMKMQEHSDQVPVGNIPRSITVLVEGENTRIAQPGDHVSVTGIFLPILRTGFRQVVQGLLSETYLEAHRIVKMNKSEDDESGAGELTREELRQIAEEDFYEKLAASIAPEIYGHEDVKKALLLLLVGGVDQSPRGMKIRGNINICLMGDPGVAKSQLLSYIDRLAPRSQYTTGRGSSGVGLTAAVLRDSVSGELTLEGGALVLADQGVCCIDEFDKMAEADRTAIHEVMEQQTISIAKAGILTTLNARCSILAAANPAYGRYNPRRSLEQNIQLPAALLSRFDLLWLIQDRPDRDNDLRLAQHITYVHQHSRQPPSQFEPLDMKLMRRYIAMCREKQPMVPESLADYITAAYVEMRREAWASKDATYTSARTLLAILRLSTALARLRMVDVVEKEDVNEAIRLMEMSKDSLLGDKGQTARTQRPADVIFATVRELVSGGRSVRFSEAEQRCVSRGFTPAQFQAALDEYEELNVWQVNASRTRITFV

No constants are given. Whether binding was seen depends on the method and setting. Binding seen in cells or lysates may run through a third protein. Some binding calls cover weakened binding; strength is not graded here. Sequences can lack the tags named with a protein.

Common to all, as to experiment: co-IP; whole cell extracts of HEK293T cells transiently transfected with HA-OGT; immunoprecipitation of either OGT or MCM subunits; buffers without SDS, one wash with 300 mM NaCl; Western blot
A general note: A western blot detects proteins with antibodies after separation by electrophoresis.

For assay [1], the target named is T1, minichromosome maintenance protein MCM3 (human (endogenous in MCF7, MDA-MB-231, HEK293T)) (UniProt P25205).
T1 sequence: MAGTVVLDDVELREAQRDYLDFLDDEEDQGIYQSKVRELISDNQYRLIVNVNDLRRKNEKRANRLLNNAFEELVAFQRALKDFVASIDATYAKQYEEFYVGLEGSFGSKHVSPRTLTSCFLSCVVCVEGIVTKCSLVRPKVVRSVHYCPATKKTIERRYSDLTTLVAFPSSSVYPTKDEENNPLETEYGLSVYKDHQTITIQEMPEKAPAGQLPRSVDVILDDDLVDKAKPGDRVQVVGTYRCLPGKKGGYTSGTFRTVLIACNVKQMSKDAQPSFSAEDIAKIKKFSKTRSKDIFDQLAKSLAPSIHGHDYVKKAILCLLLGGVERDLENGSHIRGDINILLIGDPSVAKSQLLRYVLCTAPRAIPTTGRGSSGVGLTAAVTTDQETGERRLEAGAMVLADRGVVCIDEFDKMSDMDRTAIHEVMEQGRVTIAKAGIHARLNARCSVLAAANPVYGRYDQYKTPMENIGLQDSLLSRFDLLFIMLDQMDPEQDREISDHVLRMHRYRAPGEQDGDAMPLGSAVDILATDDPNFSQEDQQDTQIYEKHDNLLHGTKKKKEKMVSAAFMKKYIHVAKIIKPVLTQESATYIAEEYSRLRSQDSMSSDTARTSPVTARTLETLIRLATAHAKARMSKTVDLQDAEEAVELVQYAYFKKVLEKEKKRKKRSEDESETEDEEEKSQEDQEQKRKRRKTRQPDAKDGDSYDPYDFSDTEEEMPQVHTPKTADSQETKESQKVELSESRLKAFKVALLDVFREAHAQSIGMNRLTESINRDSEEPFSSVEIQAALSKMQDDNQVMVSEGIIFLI

The target of assay [2] is minichromosome maintenance protein MCM7 (human (endogenous in MCF7, MDA-MB-231, HEK293T)) (UniProt P33993).
In assay [3] the target is T2, minichromosome maintenance protein MCM4 (human (endogenous in MCF7, HEK293T)) (UniProt P33991).
T2 sequence: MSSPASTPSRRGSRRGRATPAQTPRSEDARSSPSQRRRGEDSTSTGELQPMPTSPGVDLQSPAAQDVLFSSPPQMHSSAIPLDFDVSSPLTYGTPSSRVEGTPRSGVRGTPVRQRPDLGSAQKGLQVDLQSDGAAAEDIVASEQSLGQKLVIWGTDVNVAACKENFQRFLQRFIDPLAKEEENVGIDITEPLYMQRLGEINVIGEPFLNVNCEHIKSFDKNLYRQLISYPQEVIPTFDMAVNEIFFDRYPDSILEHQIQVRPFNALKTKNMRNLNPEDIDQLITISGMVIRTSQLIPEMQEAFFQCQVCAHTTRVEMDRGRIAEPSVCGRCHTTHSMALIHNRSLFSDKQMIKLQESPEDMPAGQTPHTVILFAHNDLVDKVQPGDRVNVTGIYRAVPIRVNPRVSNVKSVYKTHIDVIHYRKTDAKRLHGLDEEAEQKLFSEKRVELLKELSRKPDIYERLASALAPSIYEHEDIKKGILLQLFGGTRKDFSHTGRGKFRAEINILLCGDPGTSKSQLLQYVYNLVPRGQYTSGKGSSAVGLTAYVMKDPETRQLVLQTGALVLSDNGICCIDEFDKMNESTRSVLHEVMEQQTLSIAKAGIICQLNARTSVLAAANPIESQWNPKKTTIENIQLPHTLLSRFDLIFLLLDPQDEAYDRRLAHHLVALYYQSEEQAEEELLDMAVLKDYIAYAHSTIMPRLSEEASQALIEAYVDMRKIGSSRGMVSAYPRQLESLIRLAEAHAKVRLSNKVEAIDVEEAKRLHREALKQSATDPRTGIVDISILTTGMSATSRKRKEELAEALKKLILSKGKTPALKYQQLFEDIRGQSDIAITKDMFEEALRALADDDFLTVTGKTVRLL

B1: HA-tagged OGT (enzyme, UniProt O15294 1-1046)
chain: MASSVGNVADSTEPTKRMLSFQGLAELAHREYQAGDFEAAERHCMQLWRQEPDNTGVLLLLSSIHFQCRRLDRSAHFSTLAIKQNPLLAEAYSNLGNVYKERGQLQEAIEHYRHALRLKPDFIDGYINLAAALVAAGDMEGAVQAYVSALQYNPDLYCVRSDLGNLLKALGRLEEAKACYLKAIETQPNFAVAWSNLGCVFNAQGEIWLAIHHFEKAVTLDPNFLDAYINLGNVLKEARIFDRAVAAYLRALSLSPNHAVVHGNLACVYYEQGLIDLAIDTYRRAIELQPHFPDAYCNLANALKEKGSVAEAEDCYNTALRLCPTHADSLNNLANIKREQGNIEEAVRLYRKALEVFPEFAAAHSNLASVLQQQGKLQEALMHYKEAIRISPTFADAYSNMGNTLKEMQDVQGALQCYTRAIQINPAFADAHSNLASIHKDSGNIPEAIASYRTALKLKPDFPDAYCNLAHCLQIVCDWTDYDERMKKLVSIVADQLEKNRLPSVHPHHSMLYPLSHGFRKAIAERHGNLCLDKINVLHKPPYEHPKDLKLSDGRLRVGYVSSDFGNHPTSHLMQSIPGMHNPDKFEVFCYALSPDDGTNFRVKVMAEANHFIDLSQIPCNGKAADRIHQDGIHILVNMNGYTKGARNELFALRPAPIQAMWLGYPGTSGALFMDYIITDQETSPAEVAEQYSEKLAYMPHTFFIGDHANMFPHLKKKAVIDFKSNGHIYDNRIVLNGIDLKAFLDSLPDVKIVKMKCPDGGDNADSSNTALNMPVIPMNTIAEAVIEMINRGQIQITINGFSISNGLATTQINNKAATGEEVPRTIIVTTRSQYGLPEDAIVYCNFNQLYKIDPSTLQMWANILKRVPNSVLWLLRFPAVGEPNIQQYAQNMGLPQNRIIFSPVAPKEEHVRRGQLADVCLDTPLCNGHTTGMDVLWAGTPMVTMPGETLASRVAASQLTCLGCLELIAKNRQEYEDIAVKLGTDLEYLKKVRGKVWKQRISSPLFNTKQYTMELERLYLQMWEHYAAGNKPDHMIKPVEVTESA
For B1, the binding entry in assay [1] is “binds”; in assay [2], “binds”; in assay [3], “no binding”.
